Measurements: PubChem BioAssay AID488969 (Vanderbilt High Throughput Screening Facility, 2010)
Whole data set: some 110,000 compounds, median “z-score” near -0.1, cut for the highest 2% near 2. The list shows a part of the results. The source made the active and inactive calls.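 Rule for the calls: active = z-score in the third read window above 3 or below -3; inactive = the rest.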

target: Metabotropic glutamate receptor 8 (Rattus norvegicus) (UniProt P70579); test: rat mGluR8 modulators via GIRK flux, primary screen, cell-based, thallium flux, HTS (AID 488969); conditions: HEK293 rat mGluR8, GIRK (G protein-gated inwardly rectifying potassium channel) thallium flux, FluoZin2; at 10 µM; stronger effect = higher value; submaximal glutamate (EC20) added with thallium
Chain of UniProt P70579 (P70579 whole entry, looked up): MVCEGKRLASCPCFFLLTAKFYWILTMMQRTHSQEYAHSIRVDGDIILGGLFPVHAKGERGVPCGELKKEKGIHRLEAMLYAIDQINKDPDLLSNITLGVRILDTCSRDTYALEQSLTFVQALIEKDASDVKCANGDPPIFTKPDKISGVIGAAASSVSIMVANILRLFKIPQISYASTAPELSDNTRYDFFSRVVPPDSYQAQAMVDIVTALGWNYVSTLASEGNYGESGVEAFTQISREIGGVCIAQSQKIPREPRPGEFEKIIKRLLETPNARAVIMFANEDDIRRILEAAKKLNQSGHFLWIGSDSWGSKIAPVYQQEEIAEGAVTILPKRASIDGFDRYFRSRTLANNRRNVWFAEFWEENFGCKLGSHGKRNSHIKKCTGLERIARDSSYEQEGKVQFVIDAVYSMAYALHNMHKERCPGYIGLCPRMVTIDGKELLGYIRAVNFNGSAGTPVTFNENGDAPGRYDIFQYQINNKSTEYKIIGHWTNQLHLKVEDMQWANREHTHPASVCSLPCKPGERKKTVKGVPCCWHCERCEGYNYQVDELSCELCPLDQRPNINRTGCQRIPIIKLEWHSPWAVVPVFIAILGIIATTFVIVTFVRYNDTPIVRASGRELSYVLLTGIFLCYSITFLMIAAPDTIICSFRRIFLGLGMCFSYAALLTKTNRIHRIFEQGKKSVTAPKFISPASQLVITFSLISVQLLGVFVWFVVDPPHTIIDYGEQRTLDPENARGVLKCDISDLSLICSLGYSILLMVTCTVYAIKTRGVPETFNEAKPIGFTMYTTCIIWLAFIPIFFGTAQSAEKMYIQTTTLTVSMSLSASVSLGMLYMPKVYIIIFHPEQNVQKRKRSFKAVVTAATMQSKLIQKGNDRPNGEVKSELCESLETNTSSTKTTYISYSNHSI

| SMILES | z-score |
| --- | --- |
| CCSc1nc(=O)n(-c2ccccc2)c(C)c1C(C)=O | -0.368 |
| N#C/C(=C\c1c[nH]c2ccccc12)c1nnc2n1CCCCC2 | -0.167 |
| Cc1cc2cc3c(cc2nc1SCC(=O)Nc1nc(C)c(C)s1)OCO3 | -0.138 |
| CCOCCCNc1nc2ccccc2[nH]1 | -0.0367 |
| Cc1cc(C)c(N2CCN(S(=O)(=O)N3CCCCCC3)CC2)c(C)c1 | -0.176 |
| Cc1ccc(S(=O)(=O)Nc2ccc(-c3cn4ccc(C)cc4n3)cc2)cc1 | -0.0809 |
| COc1ccc(CN(C(=O)CN2C(=O)C(C)Oc3ccccc32)C2CCCC2)c(OC)c1 (stereo not drawn) | -0.86 |
| Cc1nnc(SCc2ccc(F)cc2)n1NC/C=C/c1ccccc1 | -0.404 |
| CC(C)CN(C(=O)COC(=O)c1ccccc1SCC(=O)NC1CCCCCC1)C1CCS(=O)(=O)C1 (stereo not drawn) | -0.47 |
| O=C(Cc1ccccc1)Nc1ccccc1N1CCOCC1 | 0.678 |
| COc1ccc(C(=O)N2CCN(S(=O)(=O)c3ccccc3)CC2)c(OC)c1 | -0.362 |
| CCN(CC)S(=O)(=O)c1ccc(Cl)c(NC(=O)c2cc(Cl)cc(Cl)c2)c1 | 0.00219 |
| CCn1c(-c2csc(-c3ccc(Cl)cc3)n2)n[nH]c1=S | 1.31 |
| O=C(CCn1c(=O)sc2ccccc21)NCCN1CCOCC1 | 0.052 |
| COc1ccc(CCn2c(N3CCN(Cc4ccccc4)CC3)nc3c2c(=O)[nH]c(=O)n3C)cc1 | -0.247 |
| CCCCn1c(CN2CCN(c3ccc(F)cc3)CC2)nc2c1c(=O)n(C)c(=O)n2C | -0.751 |
| Cn1cc(C(=O)Nc2ccc(F)c(Cl)c2)cn1 | 0.00201 |
| O=C(NCCN1C(=O)S/C(=C\c2cccnc2)C1=O)c1cccc(OC(F)F)c1 | -0.253 |
| Cc1nnc(SCC(=O)NCCN2C(=O)CSC2=O)s1 | 0.195 |
| CCN(CC)S(=O)(=O)c1cccc(-c2nnc(SCC(=O)NCCC3=CCCCC3)n2N)c1 | -0.545 |
| COC(=O)C(NC(=O)c1ccccc1)(Nc1nc(C)cs1)C(F)(F)F (stereo not drawn) | 0.511 |
| Cc1cc(=O)[nH]c(SCC(=O)c2ccc(C(C)C)cc2)n1 | -0.894 |
| CCOc1ccc(OCCOCCNCCOC)cc1 | 0.0989 |
| Cc1ccc2nc(SCC(=O)c3cc(C)n(C)c3C)[nH]c2c1 | -1.1 |
| CCCc1nnc(NC(=O)CCN2C(=O)c3ccccc3C2=O)s1 | 0.196 |

| SMILES | z-score |
| --- | --- |
| O=C(NCCN1CCCCC1)Nc1ccccc1 | 0.0513 |
| CCOC(=O)CNC(=O)/C=C/c1c(Cl)cccc1Cl | -0.181 |
| CC(C)Cc1nnc(NC(=O)CSc2ccccn2)s1 | -1.08 |
| COc1cc(/C=N/NC(=O)c2cccnc2)ccc1OCC(=O)N1CCOCC1 | -0.3 |
| CCC(C)(C)NC(=O)C(c1ccc(C)o1)N(C(=O)c1csnn1)c1cccc(F)c1 (stereo not drawn) | 0.38 |
| CCOC(=O)C1=C(C)NC(=O)NC1C (stereo not drawn) | 0.203 |
| CCn1c(-c2ccccc2Cl)nn(CC(=O)Nc2cc(Cl)ccc2Cl)c1=S | 0.0802 |
| COc1ccc(-c2nc(C#N)c(NCCCN(C)C)o2)cc1OC | active: 11.2 |
| COc1ccc(C)cc1S(=O)(=O)Nc1cc(Cl)ccc1Cl | 0.703 |
| Cc1ccc(C2C(C#N)C(C#N)N3CCCN23)cc1 (stereo not drawn) | -0.161 |
| Cc1ccc(OC(=O)c2ccc(S(=O)(=O)N(C)C)cc2)c(-n2nc3ccccc3n2)c1 | -0.147 |
| Cc1ccc(N2CC(C(=O)Nc3ccc4c(c3)OCO4)CC2=O)cc1 (stereo not drawn) | 0.373 |
| O=[N+]([O-])c1ccc(CSc2nc3ccccc3o2)cc1 | -0.0485 |
| CCn1nnnc1-c1ccc(OC)c(S(=O)(=O)Nc2ccc(C)c(C)c2)c1 | -0.224 |
| CCCc1ccc(Oc2cc(Cl)nc(N)n2)cc1 | -0.135 |
| CN1CCN(Cc2nc3ccccc3c(=O)n2Cc2nc(-c3ccccc3F)cs2)CC1 | -1.84 |
| O=C1CCCN1CN1CCCCC1 | 0.661 |
| CCOc1ccccc1Nc1nc(N)nc(CSc2nncn2C)n1 | 0.0367 |
| COC(=O)/C=C1\OC(c2ccccc2)=CC1=O | -0.0673 |
| CN(c1ccccc1)S(=O)(=O)c1ccc(NC(=S)NC(=O)c2ccccc2)cc1 | active: 3.04 |
| CCC(CO)[n+]1c(C)cc(/C=C2\Sc3ccccc3N2Cc2ccccc2)cc1C (stereo not drawn) | -0.628 |
| COC(=O)c1ccc(COc2nc(C)cc(C)c2C#N)o1 | -0.603 |
| CCc1nc(SCC(=O)NCCc2ccccc2)n[nH]1 | 0.0579 |
| c1ccc(C2NCCn3cccc32)cc1 (stereo not drawn) | 0.437 |
| CN1CCc2c(c3ccccc3n2C)C1 | 0.14 |

| SMILES | z-score |
| --- | --- |
| C#CCn1c(=NC(=O)c2ccc(Br)s2)sc2cc(NC(C)=O)ccc21 | 0.137 |
| O=C(NCc1cccs1)Nc1ccc2c(c1)OCO2 | -0.138 |
| CCc1ccccc1NC(=O)c1cnccn1 | -0.367 |
| Cc1nn(C(=O)C2CC2)c(C)c1Sc1ccc(Cl)cc1 | -0.0405 |
| CCOC(=O)n1c(=O)n(Cc2c(Cl)cccc2Cl)c2ccccc21 | -0.406 |
| O=C(CSc1nnc(CNC(=O)C23CC4CC(CC(C4)C2)C3)n1-c1ccc(F)cc1)Nc1ccccc1 | -0.269 |
| COC(=O)c1ccc(Cn2cc(Cl)cn2)cc1 | -0.284 |
| c1ccc(OCc2nc3ccccc3[nH]2)cc1 | 0.0147 |
| C=CCNC(=O)CSc1cc([N+](=O)[O-])cc(S(=O)(=O)Cc2ccccc2)c1 | 0.665 |
| Cc1ccc(S(=O)(=O)N(C)Cc2cc3ccccc3[nH]c2=O)cc1 | -0.0752 |
| CCn1nnc(-c2ccccc2NC(=O)c2ccc(-n3cnnn3)cc2)n1 | 0.288 |
| O=C(CSc1ncnc2scc(-c3ccccc3)c12)N1CCN(c2ccccc2F)CC1 | -0.245 |
| COC(=O)c1ccsc1NC(=O)CSc1nnnn1-c1ccccc1SC | 0.584 |
| C/C(CCc1ccc2c(c1)OCO2)=N\N=C(/N)SC1CC(=O)N(c2ccc(Cl)cc2)C1=O (stereo not drawn) | -0.0878 |
| O=C(CSc1nc2c(sc3ccccc32)c(=O)n1-c1ccccc1)NCc1ccco1 | -0.14 |
| Cc1ccc(-n2c(CCC(=O)O)ccc2-c2cccs2)cc1C | -0.18 |
| Cc1ccc(/C=N/NC(=O)c2ccco2)s1 | -0.217 |
| Cc1cc(C)c(C)c(S(=O)(=O)NNC(=O)c2cccc(S(=O)(=O)N3CCOCC3)c2)c1C | -0.174 |
| Cc1cc(N2CCCCC2)n2ncc(-c3ccccc3)c2n1 | -0.231 |
| CCN1CCN(C(=O)Cn2c(=O)sc3ccccc32)CC1 | -0.472 |
| Cc1sc2ncnc(N(C)Cc3cccs3)c2c1C | -2.37 |
| N#Cc1ccccc1NCc1ccccc1 | -0.55 |
| CCOC(=O)N/N=C\C=C\c1ccc2c(c1)OCO2 | -0.166 |
